{"source": "a compilation of properties of binary mixtures (doi:10.1021/acs.jced.1c00419)", "assay": "xn = mol fraction of the nth substance listed", "settings": "101.3 kPa", "note": "Some of these densities may be calculated back from excess volumes.", "data": [{"molecule": "NC1CCCCC1", "note": "+ CCCCCCCCn1cc[n+](C)c1.F[B-](F)(F)F", "values": [{"measurement": "mass density", "setting": "293.15 K, x2 = 0", "value": 867.4, "unit": "kg/m3"}, {"measurement": "mass density", "setting": "303.15 K, x2 = 0", "value": 858.3, "unit": "kg/m3"}, {"measurement": "mass density", "setting": "323.15 K, x2 = 0", "value": 840.1, "unit": "kg/m3"}]}, {"molecule": "NC1CCCCC1", "note": "+ CCCCCC[n+]1ccn(C)c1.F[B-](F)(F)F", "values": [{"measurement": "mass density", "setting": "293.15 K, x2 = 0", "value": 867.4, "unit": "kg/m3"}, {"measurement": "mass density", "setting": "298.15 K, x2 = 0", "value": 862.9, "unit": "kg/m3"}, {"measurement": "mass density", "setting": "303.15 K, x2 = 0", "value": 858.3, "unit": "kg/m3"}, {"measurement": "mass density", "setting": "308.15 K, x2 = 0", "value": 853.8, "unit": "kg/m3"}, {"measurement": "mass density", "setting": "313.15 K, x2 = 0", "value": 849.2, "unit": "kg/m3"}, {"measurement": "mass density", "setting": "318.15 K, x2 = 0", "value": 844.7, "unit": "kg/m3"}, {"measurement": "mass density", "setting": "323.15 K, x2 = 0", "value": 840.1, "unit": "kg/m3"}]}, {"molecule": "NC1CCCCC1", "note": "+ CCCC[n+]1ccn(C)c1.F[B-](F)(F)F", "values": [{"measurement": "mass density", "setting": "293.15 K, x2 = 0.0982", "value": 922.1, "unit": "kg/m3"}, {"measurement": "mass density", "setting": "293.15 K, x2 = 0.2032", "value": 973.2, "unit": "kg/m3"}, {"measurement": "mass density", "setting": "293.15 K, x2 = 0.301", "value": 1014.7, "unit": "kg/m3"}, {"measurement": "mass density", "setting": "293.15 K, x2 = 0.4012", "value": 1052, "unit": "kg/m3"}, {"measurement": "mass density", "setting": "293.15 K, x2 = 0.4828", "value": 1079.2, "unit": "kg/m3"}, {"measurement": "mass density", "setting": "293.15 K, x2 = 0.6016", "value": 1114.3, "unit": "kg/m3"}, {"measurement": "mass density", "setting": "293.15 K, x2 = 0.7124", "value": 1142.9, "unit": "kg/m3"}, {"measurement": "mass density", "setting": "293.15 K, x2 = 0.8012", "value": 1163.6, "unit": "kg/m3"}, {"measurement": "mass density", "setting": "298.15 K, x2 = 0", "value": 862.9, "unit": "kg/m3"}, {"measurement": "mass density", "setting": "298.15 K, x2 = 0.0982", "value": 918.3, "unit": "kg/m3"}, {"measurement": "mass density", "setting": "298.15 K, x2 = 0.2032", "value": 969.5, "unit": "kg/m3"}, {"measurement": "mass density", "setting": "298.15 K, x2 = 0.301", "value": 1011, "unit": "kg/m3"}, {"measurement": "mass density", "setting": "298.15 K, x2 = 0.4828", "value": 1075.9, "unit": "kg/m3"}, {"measurement": "mass density", "setting": "298.15 K, x2 = 0.7124", "value": 1140, "unit": "kg/m3"}, {"measurement": "mass density", "setting": "298.15 K, x2 = 0.8012", "value": 1160.8, "unit": "kg/m3"}, {"measurement": "mass density", "setting": "298.15 K, x2 = 0.9024", "value": 1182.2, "unit": "kg/m3"}, {"measurement": "mass density", "setting": "303.15 K, x2 = 0", "value": 858.3, "unit": "kg/m3"}, {"measurement": "mass density", "setting": "303.15 K, x2 = 0.0982", "value": 914.2, "unit": "kg/m3"}, {"measurement": "mass density", "setting": "303.15 K, x2 = 0.2032", "value": 965.8, "unit": "kg/m3"}, {"measurement": "mass density", "setting": "303.15 K, x2 = 0.301", "value": 1007.2, "unit": "kg/m3"}, {"measurement": "mass density", "setting": "303.15 K, x2 = 0.4012", "value": 1044.8, "unit": "kg/m3"}, {"measurement": "mass density", "setting": "303.15 K, x2 = 0.4828", "value": 1072.3, "unit": "kg/m3"}, {"measurement": "mass density", "setting": "303.15 K, x2 = 0.6016", "value": 1107.8, "unit": "kg/m3"}, {"measurement": "mass density", "setting": "303.15 K, x2 = 0.8012", "value": 1157.6, "unit": "kg/m3"}, {"measurement": "mass density", "setting": "303.15 K, x2 = 0.9024", "value": 1179, "unit": "kg/m3"}, {"measurement": "mass density", "setting": "308.15 K, x2 = 0.0982", "value": 910.2, "unit": "kg/m3"}, {"measurement": "mass density", "setting": "308.15 K, x2 = 0.2032", "value": 962, "unit": "kg/m3"}, {"measurement": "mass density", "setting": "308.15 K, x2 = 0.301", "value": 1003.5, "unit": "kg/m3"}, {"measurement": "mass density", "setting": "308.15 K, x2 = 0.4012", "value": 1041.2, "unit": "kg/m3"}, {"measurement": "mass density", "setting": "308.15 K, x2 = 0.4828", "value": 1068.6, "unit": "kg/m3"}, {"measurement": "mass density", "setting": "308.15 K, x2 = 0.6016", "value": 1104.1, "unit": "kg/m3"}, {"measurement": "mass density", "setting": "308.15 K, x2 = 0.7124", "value": 1133.2, "unit": "kg/m3"}, {"measurement": "mass density", "setting": "308.15 K, x2 = 0.8012", "value": 1153.8, "unit": "kg/m3"}, {"measurement": "mass density", "setting": "308.15 K, x2 = 0.9024", "value": 1175.4, "unit": "kg/m3"}, {"measurement": "mass density", "setting": "313.15 K, x2 = 0", "value": 849.2, "unit": "kg/m3"}, {"measurement": "mass density", "setting": "313.15 K, x2 = 0.0982", "value": 906.2, "unit": "kg/m3"}, {"measurement": "mass density", "setting": "313.15 K, x2 = 0.2032", "value": 958, "unit": "kg/m3"}, {"measurement": "mass density", "setting": "313.15 K, x2 = 0.4012", "value": 1037.5, "unit": "kg/m3"}, {"measurement": "mass density", "setting": "313.15 K, x2 = 0.4828", "value": 1064.9, "unit": "kg/m3"}, {"measurement": "mass density", "setting": "313.15 K, x2 = 0.6016", "value": 1100.2, "unit": "kg/m3"}, {"measurement": "mass density", "setting": "313.15 K, x2 = 0.7124", "value": 1129.3, "unit": "kg/m3"}, {"measurement": "mass density", "setting": "313.15 K, x2 = 0.8012", "value": 1149.6, "unit": "kg/m3"}, {"measurement": "mass density", "setting": "318.15 K, x2 = 0", "value": 844.7, "unit": "kg/m3"}, {"measurement": "mass density", "setting": "318.15 K, x2 = 0.0982", "value": 901.8, "unit": "kg/m3"}, {"measurement": "mass density", "setting": "318.15 K, x2 = 0.2032", "value": 954, "unit": "kg/m3"}, {"measurement": "mass density", "setting": "318.15 K, x2 = 0.4012", "value": 1034.3, "unit": "kg/m3"}, {"measurement": "mass density", "setting": "318.15 K, x2 = 0.4828", "value": 1061.5, "unit": "kg/m3"}, {"measurement": "mass density", "setting": "318.15 K, x2 = 0.6016", "value": 1096.8, "unit": "kg/m3"}, {"measurement": "mass density", "setting": "318.15 K, x2 = 0.7124", "value": 1126, "unit": "kg/m3"}, {"measurement": "mass density", "setting": "318.15 K, x2 = 0.8012", "value": 1147, "unit": "kg/m3"}, {"measurement": "mass density", "setting": "318.15 K, x2 = 0.9024", "value": 1167.9, "unit": "kg/m3"}, {"measurement": "mass density", "setting": "323.15 K, x2 = 0.0982", "value": 897.6, "unit": "kg/m3"}, {"measurement": "mass density", "setting": "323.15 K, x2 = 0.2032", "value": 950.1, "unit": "kg/m3"}, {"measurement": "mass density", "setting": "323.15 K, x2 = 0.301", "value": 992.6, "unit": "kg/m3"}, {"measurement": "mass density", "setting": "323.15 K, x2 = 0.4012", "value": 1030.8, "unit": "kg/m3"}, {"measurement": "mass density", "setting": "323.15 K, x2 = 0.4828", "value": 1058.4, "unit": "kg/m3"}, {"measurement": "mass density", "setting": "323.15 K, x2 = 0.7124", "value": 1122.9, "unit": "kg/m3"}, {"measurement": "mass density", "setting": "323.15 K, x2 = 0.8012", "value": 1143.9, "unit": "kg/m3"}, {"measurement": "mass density", "setting": "323.15 K, x2 = 0.9024", "value": 1164.6, "unit": "kg/m3"}]}]}
